Reference: PubChem BioAssay AID624173 (National Center for Advancing Translational Sciences (NCATS), 2012)
Hit rate of the full screen: of about 410,000 compounds, about 490 (0.12%) were called active. The shares of active, inactive and inconclusive entries below differ from those in the screen. Calls come from the whole dose curve; as a rule, active = well fitted inhibition curve with a large enough effect; inconclusive = small, poorly fitted or top-dose-only effect; inactive = flat fitted curve, though single readings scatter. Potencies of inconclusive entries are doubtful fits and often do not repeat.

Target: pyruvate kinase (Trypanosoma brucei) (UniProt Q57TT1)
Test: qHTS of Trypanosoma Brucei Inhibitors; note: nearly all actives have a fitted effect of over 50% in size
Details: TbPYK enzyme, Kinase-Glo Plus ATP luminescence, 45 min; series mostly up to 76.8 µM; activity, negative = inhibition: at the top concentration
Procedure, shortened: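 T. brucei PYK with substrate was exposed to pin-transferred compounds across a concentration series, then started with 130 uM ADP (final). After 45 min at room temperature, Kinase-Glo Plus luminescence was read, normalized and curve-fitted.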
% is set by controls: 0 for no effect and ±100 for the full control effect; potency is the fitted concentration of half-maximal effect; tags give direction and shape of the fitted curve.

SMILES | Potency | activity, negative = inhibition
Cc1cc(C)c2c(=O)n(CC(=O)Nc3ccc(Cl)cc3)sc2n1 | inconclusive: 6.31 µM [inhibitor, full curve, poor fit] | 
Fc1ccccc1Nc1nc2ccccc2o1 | inconclusive: 39.8 µM [inhibitor, single point] | 
CCOc1ccc(OCC)c(NS(=O)(=O)c2cccc3nsnc23)c1 |  | inactive: 3.84%
S=c1[nH]nc(COc2ccc(Cl)cc2)n1Cc1ccccc1 | inconclusive: 3.98 µM [inhibitor, full curve] | 
O/N=C/c1ccccc1Oc1ccc(Cl)cc1 | inconclusive: 50.1 µM [inhibitor, partial curve, poor fit] | 
CC1CCCC/C1=N\NC(=S)NCCc1ccccc1 (configuration not stated) |  | inactive: -0.23%
CCc1ccc(S(=O)(=O)/N=C2\C=C(Nc3ccc(O)cc3)C(=O)c3ccccc32)cc1 | inconclusive: 39.8 µM [inhibitor, single point] | 
COc1ccc(-c2csc3[nH]c(=S)n(-c4ccccc4)c(=O)c23)cc1OC | inconclusive: 39.8 µM [inhibitor, partial curve, poor fit] | 
COc1ccc(CNC(=O)C(C)n2nc(C)c3c(C)n(-c4ccc(C)cc4)nc3c2=O)cc1 (configuration not stated) | inconclusive: 50.1 µM [inhibitor, single point] | 
O=C1NC(=S)NC(=O)C1=Cc1ccc(OCc2ccccc2)cc1 | inconclusive: 10 µM [inhibitor, partial curve] | 
CCOC(=O)c1cccc(NC(=O)N2Cc3ccccc3Oc3ncccc32)c1 |  | inactive: 0%
Cn1c(-c2ccc(Br)o2)nc2ccccc21 | inconclusive: 22.4 µM [inhibitor, partial curve, poor fit] | 
CC1(C(=O)NCc2cccs2)Cc2c(-c3ccccc3)ccnc2O1 (configuration not stated) |  | inactive: -1.58%
Cc1cc(Nc2cccc(F)c2)nc(NCc2ccccc2)n1 | inconclusive: 35.5 µM [inhibitor, single point] | 
Cn1cc(Cl)c(-c2n[nH]c(=S)n2-c2ccccc2)n1 | inconclusive: 7.08 µM [inhibitor, partial curve, poor fit] | 
S=c1nc(-c2ccccc2)[nH]n1-c1ccccc1 | inconclusive: 2.24 µM [inhibitor, partial curve, poor fit] | 
COc1cc(/C=C2\C(=O)NC(=O)N(c3ccccc3)C2=O)cc(OC)c1O | inconclusive: 44.7 µM [inhibitor, partial curve, poor fit] | 
Cc1ncc(CO)c(/C=N/NC(=S)Nc2ccc(F)cc2)c1O | inconclusive: 15.8 µM [inhibitor, partial curve, poor fit] | 
Cc1ccc(NC(=O)Cc2n[nH]c(=S)n2C)cc1 | inconclusive: 15.8 µM [inhibitor, partial curve, poor fit] | 
CNc1nc(OCC(F)(F)F)nc(N2CCOCC2)n1 | inconclusive: 31.6 µM [inhibitor, single point] | 
COCCn1c(SCC(=O)c2cccc(OC)c2)nnc1-c1ccco1 | inconclusive: 35.5 µM [inhibitor, partial curve, poor fit] | 

SMILES | Potency | activity, negative = inhibition
C=Cc1ccc2c(c1)N(C)C(=C)S2 | inconclusive: 31.6 µM [inhibitor, partial curve] | 
O=C(Nc1ccc(C(F)(F)F)cc1)c1ccc2ncsc2c1 | inconclusive: 28.2 µM [inhibitor, partial curve, poor fit] | 
COc1ccc(C=C2C=C(C(C)(C)C)C(=O)C(C(C)(C)C)=C2)cc1OC |  | inactive: 4.42%
CN1CCN(C(=S)C(=O)Nc2ccc(Br)cc2)CC1 | inconclusive: 35.5 µM [inhibitor, partial curve, poor fit] | 
O=C(Nc1ccc2c(c1)OCCO2)c1ccccn1 | inconclusive: 35.5 µM [inhibitor, single point] | 
COc1ccc(OC)c(-n2c(-c3cc(-c4ccc(F)cc4)n[nH]3)n[nH]c2=S)c1 | inconclusive: 5.62 µM [inhibitor, partial curve] | 
COc1cc(NC(=S)N2CCN(c3ccccn3)CC2)c(OC)cc1Cl | inconclusive: 12.6 µM [inhibitor, partial curve] | 
CC1CCCc2sc3ncn(N)c(=N)c3c21 (configuration not stated) |  | inactive: 5.49%
O=[N+]([O-])c1ccc(C2C3C(c4ccccc4)=NC4(CCCCC4)N32)cc1 (configuration not stated) | inconclusive: 0.794 µM [inhibitor, full curve, poor fit] | 
Cc1cccc(C)c1OCc1n[nH]c(=S)n1N | inconclusive: 11.2 µM [inhibitor, partial curve] | 
COc1ccc(Cl)cc1NC(=O)c1c(NCc2cccnc2)sc2c1CCCC2 | inconclusive: 11.2 µM [inhibitor, full curve, poor fit] | 
C=CCn1c(C(CC(C)C)CC(C)O)n[nH]c1=S (configuration not stated) | inconclusive: 5.62 µM [inhibitor, partial curve, poor fit] | 
COc1ccc2c(c1O)Cc1ccccc1C2=O | inconclusive: 20 µM [inhibitor, partial curve, poor fit] | 
COc1ccc(S(=O)(=O)Nc2c(C(=O)O)[nH]c3ccc(OC)cc23)c(OC)c1 | inconclusive: 28.2 µM [inhibitor, partial curve] | 
COc1ccc(C(=O)CNc2ccccc2Br)cc1 |  | inactive: 10.5%
O=c1c2ccccc2nc(/C=C/c2cccnc2)n1Cc1ccccc1 | inconclusive: 50.1 µM [inhibitor, single point] | 
Cc1cc(C)c(S(=O)(=O)ON2C(=O)c3ccccc3C2=O)cc1C | inconclusive: 31.6 µM [inhibitor, single point] | 
Oc1c(Br)cc(C2N=C(c3ccccc3)NO2)cc1Br (configuration not stated) | inconclusive: 44.7 µM [inhibitor, partial curve, poor fit] | 
CCN(CC)S(=O)(=O)c1ccc(OC)c(NC(=O)/C=C/c2ccco2)c1 | inconclusive: 50.1 µM [inhibitor, single point] | 
Cc1ccc(C)c(N(CC(=O)NC2CCCC2)C(=O)c2oc(C(C)(C)C)cc2C)c1 |  | inactive: 3.48%
Nc1c(C(=O)N2CCOCC2)sc2nc3c(cc12)CCCC3 | inconclusive: 22.4 µM [inhibitor, partial curve] | 
